Where a chain is given by its changes, count along the chain named. This is one part of the list.

The chains are these.
T1: RBFOX1 RRM RbFoxmut (Fox-RRM*) (Homo sapiens, UniProt Q9NWB1 109-208, R118D;E147R;N151S;E152T)
T1 sequence: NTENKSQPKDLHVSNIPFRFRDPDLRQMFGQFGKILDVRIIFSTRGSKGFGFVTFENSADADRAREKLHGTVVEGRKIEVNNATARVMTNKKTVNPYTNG

B1: ACUGUCU (DNA:RNA)
RNA: GGGAGACCGGAAUUCAGAUUGUCCACUGUCUUUAAAUCCCGUCGUAGCCACCA
DNA 1: CAATCTGAATTCCGGTCTCCC
DNA 2: TGGTGGCTACGACGGGATT
B2: CCUGGCU (DNA:RNA)
RNA: B1 RNA with A25C, U29G
DNA 1: CAATCTGAATTCCGGTCTCCC
DNA 2: TGGTGGCTACGACGGGATT
B3: GAAUGGG (DNA:RNA)
RNA: GGGAGACCGGAAUUCAGAUUGUCCGAAUGGGUUAAAUCCCGUCGUAGCCACCA
DNA 1: CAATCTGAATTCCGGTCTCCC
DNA 2: TGGTGGCTACGACGGGATT
B4: GGGUUCA (DNA:RNA)
RNA: B1 RNA with A25G, C26G, U27G, G28U, U31A
DNA 1: CAATCTGAATTCCGGTCTCCC
DNA 2: TGGTGGCTACGACGGGATT
B5: GGGGCGC (DNA:RNA)
RNA: B3 RNA with A26G, A27G, U28G, G29C, G31C
DNA 1: CAATCTGAATTCCGGTCTCCC
DNA 2: TGGTGGCTACGACGGGATT
B6: UCACAAU (DNA:RNA)
RNA: B1 RNA with A25U, U27A, G28C, U29A, C30A
DNA 1: CAATCTGAATTCCGGTCTCCC
DNA 2: TGGTGGCTACGACGGGATT
B7: AAAAUAA (DNA:RNA)
RNA: B1 RNA with C26A, U27A, G28A, C30A, U31A
DNA 1: CAATCTGAATTCCGGTCTCCC
DNA 2: TGGTGGCTACGACGGGATT
B8: AGUACCG (DNA:RNA)
RNA: B1 RNA with C26G, G28A, U29C, U31G
DNA 1: CAATCTGAATTCCGGTCTCCC
DNA 2: TGGTGGCTACGACGGGATT
B9: GGACAAU (DNA:RNA)
RNA: B3 RNA with A26G, U28C, G29A, G30A, G31U
DNA 1: CAATCTGAATTCCGGTCTCCC
DNA 2: TGGTGGCTACGACGGGATT
B10: GCUGCUG (DNA:RNA)
RNA: B1 RNA with A25G, U29C, C30U, U31G
DNA 1: CAATCTGAATTCCGGTCTCCC
DNA 2: TGGTGGCTACGACGGGATT
B11: UUUAACA (DNA:RNA)
RNA: B1 RNA with A25U, C26U, G28A, U29A, U31A
DNA 1: CAATCTGAATTCCGGTCTCCC
DNA 2: TGGTGGCTACGACGGGATT
B12: GGGAAUG (DNA:RNA)
RNA: B3 RNA with A26G, A27G, U28A, G29A, G30U
DNA 1: CAATCTGAATTCCGGTCTCCC
DNA 2: TGGTGGCTACGACGGGATT
B13: AAUGUCA (DNA:RNA)
RNA: B1 RNA with C26A, U31A
DNA 1: CAATCTGAATTCCGGTCTCCC
DNA 2: TGGTGGCTACGACGGGATT
B14: GUCGCGA (DNA:RNA)
RNA: B3 RNA with A26U, A27C, U28G, G29C, G31A
DNA 1: CAATCTGAATTCCGGTCTCCC
DNA 2: TGGTGGCTACGACGGGATT
B15: CCUAUGU (DNA:RNA)
RNA: B1 RNA with A25C, G28A, C30G
DNA 1: CAATCTGAATTCCGGTCTCCC
DNA 2: TGGTGGCTACGACGGGATT
B16: GGAUUCC (DNA:RNA)
RNA: B3 RNA with A26G, G29U, G30C, G31C
DNA 1: CAATCTGAATTCCGGTCTCCC
DNA 2: TGGTGGCTACGACGGGATT
B17: CCAACUG (DNA:RNA)
RNA: B3 RNA with G25C, A26C, U28A, G29C, G30U
DNA 1: CAATCTGAATTCCGGTCTCCC
DNA 2: TGGTGGCTACGACGGGATT
B18: UCUUAUC (DNA:RNA)
RNA: B1 RNA with A25U, G28U, U29A, C30U, U31C
DNA 1: CAATCTGAATTCCGGTCTCCC
DNA 2: TGGTGGCTACGACGGGATT
B19: GUAGUCG (DNA:RNA)
RNA: B1 RNA with A25G, C26U, U27A, U31G
DNA 1: CAATCTGAATTCCGGTCTCCC
DNA 2: TGGTGGCTACGACGGGATT
B20: UCCCUAA (DNA:RNA)
RNA: B1 RNA with A25U, U27C, G28C, C30A, U31A
DNA 1: CAATCTGAATTCCGGTCTCCC
DNA 2: TGGTGGCTACGACGGGATT

In the assay the target is T1, RBFOX1 RRM RbFoxmut (Fox-RRM*). Nature of the assay: EMSA; HiTS-Eq, 1 nM pool, 10 min; buffer printed only for the single-RNA assays: 10 mM Tris pH 7.5, 150 mM NaCl, 3.4 mM EDTA, 0.001% NP-40, 30 C. The settings on record: tags: His6 N-terminal (pET28a); label: 5' 32P. A digest of the protocol:
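Purified RbFox RRM (wild type or mutant) was equilibrated for 10 min in 50 µL with 1 nM of a 5′-radiolabelled pool of RNA with 7 randomized nucleotides, its flanks annealed to DNA oligonucleotides, across increasing protein concentrations. Free RNA was separated by 8% native PAGE, excised, reverse-transcribed, PCR-barcoded and sequenced on an Illumina HiSeq 2500. Relative association constants came from read-count changes of each variant against the control reaction, normalised to the cognate motif.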
Consider B1, for which the binding signal is 0.0844 KA relative to UGCAUGU. For the molecule B2, the binding signal was 0.073 KA relative to UGCAUGU. Take B3: the binding signal was 0.21 KA relative to UGCAUGU. Consider B4, for which the binding signal is 0.205 KA relative to UGCAUGU. Take B5: the binding signal was 0.126 KA relative to UGCAUGU. Take B6: the binding signal is 0.048 KA relative to UGCAUGU. Next, B7: 0.0839 KA relative to UGCAUGU; B8: 0.111 KA relative to UGCAUGU; B9: 0.0574 KA relative to UGCAUGU. Next, B10: 0.0803 KA relative to UGCAUGU; B11: 0.104 KA relative to UGCAUGU.

Turning to B12, the binding signal was 1.15 KA relative to UGCAUGU. In the case of B13, the binding signal is 0.121 KA relative to UGCAUGU. Then B14, with 0.109 KA relative to UGCAUGU; and B15, with 0.148 KA relative to UGCAUGU; and B16, with 0.0795 KA relative to UGCAUGU. Next, B17: 0.112 KA relative to UGCAUGU. Then B18, with 0.0734 KA relative to UGCAUGU. Regarding B19, the binding signal is 0.125 KA relative to UGCAUGU.

On to B20, for which the binding signal was 0.082 KA relative to UGCAUGU.

Values taken from publication PMC9911399, “Two distinct binding modes provide the RNA-binding protein RbFox with extraordinary sequence specificity”.
